Reference: PubChem BioAssay (NCATS)
Values joined by “and” are separate entries in the source; they are usually repeats but may differ in a detail not shown here. Equal entries are not always repeated. This list was built around the results that the source calls inconclusive (neither active nor inactive); the mix of calls is not that of the screen. For some of these results: Potencies beside an inconclusive call are fits to weak or partial responses and may not hold up. Active and inactive are the calls of the source. Calls come from the whole dose curve; as a rule, active = well fitted curve in the direction sought with a large enough effect; inconclusive = small, poorly fitted or top-dose-only effect, or another doubt; inactive = no such curve, though single readings can be large; an effect the other way counts as inactive or inconclusive.

What was measured:
[1] = Viability qHTS for spleen associated tyrosine kinase inhibitor (SYKi) naive MV4-11 cells (AID 1963823); conditions: MV4-11 AML viability, CellTiter-Glo luminescence, 72 h; viability (% of control): at 45 µM (top of the series); note: nearly all actives have a fitted effect of over 40% in size; note: potency is the fitted concentration of half-maximal effect
In short: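 SYKi-naive MV4-11 AML cells, 500 per well, were exposed to library compounds for 72 hr at 37 C, 5% CO2. Viability was then read by CellTiter-Glo luminescence after 10 min at room temperature.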

[2] = Viability qHTS for spleen associated tyrosine kinase inhibitor (SYKi) drug resistant MV4-11 cells (AID 1963824); note: nearly all actives have a fitted effect of over 35% in size; note: potency is the fitted concentration of half-maximal effect
In short: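 SYK-inhibitor-resistant MV4-11 AML cells were seeded at 500 per well onto compound and cultured 72 hours (37 °C, 5% CO2). CellTiter-Glo was then added, and after 10 min at room temperature, luminescence gave viability.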

[3] = Quantitative highthroughput screen to assess conditional lethalithy of P12 Ichikawa cells grown in RPMI1640 with dialyzed fetal bovine serum (RPMI+ds) (AID 1963880); conditions: Potency: P12-Ichikawa viability; note: nearly all actives have a fitted effect of over 35% in size; note: potency is the fitted concentration of half-maximal effect;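 for Viability: 100% = DMSO wells and 0% = empty wells on each plate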
In short: (§1)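 Each medium arm—HPLM with 10% dialyzed FBS, or RPMI1640 with 5 mM glucose and 10% untreated or dialyzed FBS—was screened against an 11-point, 3-fold compound titration for 48 h at 37 °C, with CellTiter-Glo luminescence as endpoint.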

[4] = Quantitative highthroughput screen to assess conditional lethalithy of SEM cells grown in Human Plasma-Like Medium with dialyzed fetal bovine serum (HPLM+ds) (AID 1963882); note: nearly all actives have a fitted effect of over 35% in size; note: potency is the fitted concentration of half-maximal effect
In short: as §1

[5] = Quantitative highthroughput screen to assess conditional lethalithy of SEM cells grown in RPMI1640 with unreated serum (RPMI+s) (AID 1963883); conditions: SEM B-ALL cells, CellTiter-Glo viability, 48 h; viability: at 45.8 µM (top of the series); note: nearly all actives have a fitted effect of over 35% in size; note: potency is the fitted concentration of half-maximal effect;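 for Viability: 100% = DMSO wells and 0% = empty wells without cells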
In short: as §1

[6] = Quantitative highthroughput screen to assess conditional lethalithy of SEM cells grown in RPMI1640 with dialyzed fetal bovine serum (RPMI+ds) (AID 1963884); conditions: SEM B-ALL cells, RPMI+dialyzed FBS, CellTiter-Glo viability, 48 h; viability: at 45.8 µM (top of the series); note: nearly all actives have a fitted effect of over 35% in size; note: potency is the fitted concentration of half-maximal effect;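 for Viability: 100% = DMSO control wells and 0% = empty wells without cells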
In short: as §1

[7] = Quantitative highthroughput screen to assess conditional lethalithy of P12 Ichikawa cells grown in RPMI1640 with untreated serum (RPMI+s) (AID 1963881); conditions: Potency: viability
In short: as §1

[8] = Cellular viability qHTS for adrenocortical cancer (ACC) cell line NCI-H295R (AID 1963990); conditions: CellTiter-Glo ATP luminescence, 48 h; activity change, negative = viability loss: at 46.1 µM (top of the series); note: nearly all actives have a fitted effect of over 60% in size; note: potency is the fitted concentration of half-maximal effect;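 for activity change, negative = viability loss: 0% = DMSO only wells and -100% = full killing with cytotoxic reference compound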
In short: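 Viability of NCI-H295R after 48 h of treatment (final up to 46 uM) measured through cellular ATP luminescence.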

[9] = Cellular viability qHTS for adrenocortical cancer (ACC) cell line SW-13 (AID 1963989); conditions: SW-13 ACC cells viability, CellTiter-Glo, 48 h; activity (max response): stronger effect = lower value; note: nearly all actives have a fitted effect of over 65% in size; note: potency is the fitted concentration of half-maximal effect;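 for activity (max response): cells grown in serum-free medium with ITS supplement; % is set by controls: 0 for no effect and ±100 for the full control effect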
In short: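 Here, serum-free SW-13 cultures were dosed up to 46 uM. Following 48 h, ATP-dependent luminescence (CellTiter-Glo) reported viable cells, and logistic modeling produced IC50 values.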

[10] = Quantitative highthroughput screen to assess conditional lethalithy of P12 Ichikawa cells grown in Human Plasma-Like Medium with dialyzed fetal bovine serum (HPLM+ds) (AID 1963879); conditions: Potency: viability; note: nearly all actives have a fitted effect of over 35% in size
In short: as §1
Tags give direction and shape of the fitted curve.

SMILES: Cc1cn2cc(C(=O)N(C)CCO)cc(N[C@@H]3CCOc4cccc(C)c43)c2n1
- Potency [1]: active: 2.95 µM
- Potency [2]: inconclusive: 10.5 µM [cytotoxic, partial curve, poor fit]
- Potency [3]: inactive
- Potency [4]: inactive
- Potency [5]: inactive

SMILES: CC(C(C)N1CC(=O)NC(=O)C1)N1CC(=O)NC(=O)C1 (stereo not drawn)
- Potency [1]: inconclusive: 26.3 µM [cytotoxic, single point]
- Potency [2]: inconclusive: 29.5 µM [cytotoxic, single point]
- Potency [3]: inconclusive: 4.18 µM [cytotoxic, partial curve, poor fit]
- Potency [4]: inconclusive: 10.5 µM [cytotoxic, partial curve]
- Potency [5]: inconclusive: 2.96 µM [cytotoxic, full curve]
- Potency [6]: inconclusive: 3.72 µM [cytotoxic, full curve]

SMILES: Cc1cc(NC(=O)Nc2ccc(N(C)C)cc2)c2cc(F)cc(F)c2n1
- Potency [1]: inconclusive: 18.2 µM [cytotoxic, single point]
- Potency [2]: active: 10.2 µM
- Potency [7]: inactive
- Potency [6]: inactive
- Potency [8]: inactive

SMILES: Cc1cnc(Nc2cccc(CN3CCOCC3)c2)nc1Nc1cccc(S(=O)(=O)NC(C)(C)C)c1
- Potency [1]: active: 0.0934 µM
- Potency [2]: active: 0.186 µM
- Potency [3]: inconclusive: 2.64 µM [cytotoxic, full curve, poor fit]
- Potency [4]: inconclusive: 0.833 µM [cytotoxic, full curve, poor fit]
- Potency [5]: inconclusive: 1.87 µM [cytotoxic, full curve, poor fit]
- Potency [6]: inconclusive: 0.935 µM [cytotoxic, full curve, poor fit]
- activity (max response) [9]: inactive: -8.11%

SMILES: N#CC1(c2cccc(C(=O)Nc3cc(Oc4ccc5nc(NC(=O)C6CC6)sc5n4)ccc3F)c2Cl)CC1
- Potency [1]: inconclusive: 651 nM [cytotoxic, full curve] and inconclusive: 2.09 µM [cytotoxic, full curve, poor fit]
- Potency [2]: active: 580 nM and inconclusive: 2.63 µM [cytotoxic, full curve, poor fit]
- Potency [3]: active: 2.64 µM
- Potency [4]: inconclusive: 9.35 µM [cytotoxic, partial curve]
- Potency [5]: active: 3.72 µM
- Potency [6]: inconclusive: 5.9 µM [cytotoxic, full curve]
- Potency [9]: inconclusive: 5.62 µM [cytotoxic, partial curve]
- Potency [8]: inconclusive: 25.1 µM [cytotoxic, partial curve, poor fit]

SMILES: C1COC(NC(C2CC2)C2CC2)=N1
- Potency [1]: inactive
- Potency [2]: inactive
- Potency [3]: inconclusive: 37.2 µM [cytotoxic, single point]
- Potency [4]: inconclusive: 37.2 µM [cytotoxic, single point]
- Potency [5]: inconclusive: 20.9 µM [cytotoxic, single point]
- Potency [6]: inconclusive: 37.2 µM [cytotoxic, single point]

SMILES: Nc1cccc2c1CN(C1CCC(=O)NC1=O)C2=O (stereo not drawn)
- Potency [1]: active: 4.22 µM
- Potency [2]: inconclusive: 0.531 µM [cytotoxic, full curve, poor fit]
- Potency [3]: inconclusive: 17.1 µM [cytotoxic, single point]
- Potency [5]: inconclusive: 0.054 µM [cytotoxic, full curve, poor fit]
- activity (max response) [9]: inactive: -7.43%
- Potency [8]: inactive

SMILES: CNc1nc(Nc2ccc(C(=O)N3CCOCC3)cc2OC)ncc1Cl
- Potency [1]: inconclusive: 6.51 µM [cytotoxic, partial curve]
- Potency [2]: active: 5.8 µM
- Potency [10]: inactive
- Potency [4]: inconclusive: 26.4 µM [cytotoxic, single point]
- Potency [5]: inconclusive: 26.4 µM [cytotoxic, single point]
- Potency [6]: inconclusive: 26.4 µM [cytotoxic, single point]

SMILES: O=C(Nc1nc2ccccc2n1CCN1CCOCC1)c1cccc([N+](=O)[O-])c1
- Potency [1]: inconclusive: 2.09 µM [cytotoxic, full curve] and inconclusive: 1.64 µM [cytotoxic, full curve]
- Potency [2]: inconclusive: 2.91 µM [cytotoxic, full curve]
- Potency [10]: inactive
- Potency [4]: inactive
- Potency [5]: inactive

SMILES: C[N+](C)(C)CC(=O)O
- Potency [1]: inactive
- Potency [2]: inactive and inconclusive: 37.2 µM [cytotoxic, partial curve, poor fit]
- Potency [10]: inactive
- Potency [4]: inconclusive: 0.001 µM
